Measured values published in the supplement of paper PMC4967469.
A lower IC50 marks a more sensitive line; a limit (>, <) means that the fit lies beyond the doses tested. AUC, from the same fit, is the share of area under the viability curve across the 256-fold dose range; values near 1 show little effect. For some of these results: Where the top dose is marked as inferred, it was derived from the fitted curves, not read from the paper.

Key:
Experiment in all cases: Viability of human cancer cell lines after 72 h of drug (GDSC screen)
Trametinib = compound: CC(=O)Nc1cccc(-n2c(=O)n(C3CC3)c(=O)c3c(Nc4ccc(I)cc4F)n(C)c(=O)c(C)c32)c1 [Trametinib]; conditions: top dose 1 µM
Experimental: (§1)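 Human cancer cell lines in 384-well plates, medium with 10% serum, drug for 72 h over a 256-fold dose range (nine 2-fold or five 4-fold steps up to the top dose). Adherent lines were fixed and stained with the nucleic acid dye Syto60, suspension lines read with resazurin; signal relative to control wells, capped at 0 and 100%. One two-parameter sigmoid per drug and line, fitted in a mixed model over all curves with the slope shared within a line.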

MS-275 = compound: Nc1ccccc1NC(=O)c1ccc(CNC(=O)OCc2cccnc2)cc1 [MS-275]; conditions: top dose 5 µM; top dose inferred
Experimental: as §1

HG-6-64-1 = compound: CCN1CCN(Cc2ccc(NC(=O)c3ccc(C)c(/C=C/c4cnc5[nH]ccc5c4OC)c3)cc2C(F)(F)F)CC1 [HG-6-64-1]; conditions: top dose 5.12 µM; top dose inferred
Experimental: as §1

PF-4708671 = compound: CCc1cncnc1N1CCN(Cc2nc3ccc(C(F)(F)F)cc3[nH]2)CC1 [PF-4708671]; conditions: top dose 10 µM; top dose inferred
Experimental: as §1

KIN001-244 = compound: O=C(NC(COc1ccc2[nH]c(=O)[nH]c2c1)c1ccccc1)c1cccn(Cc2ccc(F)c(F)c2)c1=O [KIN001-244]; conditions: top dose 20 µM; top dose inferred
Experimental: as §1

I-BET-762 = compound: CCNC(=O)C[C@@H]1N=C(c2ccc(Cl)cc2)c2cc(OC)ccc2-n2c(C)nnc21 [I-BET-762]; conditions: top dose 20 µM; top dose inferred
Experimental: as §1

AV-951 = compound: COc1cc2nccc(Oc3ccc(NC(=O)Nc4cc(C)on4)c(Cl)c3)c2cc1OC [AV-951]; conditions: top dose 0.128 µM; top dose inferred
Experimental: as §1

| Cell Line | AUC (Trametinib) | IC50 (Trametinib) [nM] | AUC (MS-275) | IC50 (MS-275) [nM] | AUC (HG-6-64-1) | IC50 (HG-6-64-1) [nM] | AUC (PF-4708671) | IC50 (PF-4708671) [nM] | AUC (KIN001-244) | IC50 (KIN001-244) [nM] | AUC (I-BET-762) | IC50 (I-BET-762) [nM] | AUC (AV-951) | IC50 (AV-951) [nM] |
| --- | --- | --- | --- | --- | --- | --- | --- | --- | --- | --- | --- | --- | --- | --- |
| OPM-2 (myeloma, suspension) | 0.987 | > 1000 | 0.534 | 379 | 0.73 | 1250 | 0.943 | > 10000 | 0.83 | 9550 | 0.318 | 432 | 0.993 | > 128 |
| OS-RC-2 (kidney, adherent) | 0.841 | > 1000 | 0.639 | 901 | 0.612 | 746 | 0.955 | > 10000 | 0.861 | > 20000 | 0.976 | > 20000 | 0.974 | > 128 |
| OVCAR-4 (ovary, adherent) | 0.448 | 42.2 | 0.603 | 687 | 0.501 | 323 | 0.919 | > 10000 | 0.907 | > 20000 | 0.915 | > 20000 | 0.971 | > 128 |
| P30-OHK (lymphoblastic leukaemia, suspension) | 0.974 | > 1000 | 0.929 | > 5000 | 0.552 | 434 | 0.983 | > 10000 | 0.302 | 388 | 0.385 | 640 | 0.98 | > 128 |
| P32-ISH (Burkitt lymphoma, suspension) | 0.993 | > 1000 | 0.874 | 2910 | 0.448 | 239 | 0.993 | > 10000 | 0.864 | 10800 | 0.415 | 777 | 0.983 | > 128 |
| PF-382 (T-cell lymphoblastic leukaemia, suspension) | 0.99 | > 1000 | 0.709 | – | 0.539 | 403 | 0.975 | > 10000 | 0.716 | 4640 | 0.535 | 1530 | 0.982 | > 128 |
| PL-21 (acute myeloid leukaemia, suspension) | 0.807 | 618 | 0.709 | 1350 | 0.819 | 3570 | 0.958 | > 10000 | 0.593 | 2350 | 0.65 | 3510 | 0.98 | > 128 |
| PSN1 (pancreas, adherent) | 0.069 | < 3.91 | 0.757 | 1480 | 0.96 | > 5120 | 0.977 | > 10000 | 0.905 | 19500 | 0.831 | 9970 | 0.99 | > 128 |
| QIMR-WIL (acute myeloid leukaemia, suspension) | 0.948 | > 1000 | 0.63 | 704 | 0.71 | 1230 | 0.979 | > 10000 | 0.761 | 6890 | 0.477 | 1080 | 0.965 | > 128 |
| RC-K8 (B-cell lymphoma, suspension) | 0.975 | > 1000 | 0.894 | 4610 | 0.978 | > 5120 | 0.943 | > 10000 | 0.951 | > 20000 | 0.907 | > 20000 | 0.992 | > 128 |
| RCC10RGB (kidney, adherent) | 0.768 | 841 | 0.944 | > 5000 | 0.615 | 902 | 0.938 | > 10000 | 0.843 | > 20000 | 0.953 | > 20000 | 0.97 | > 128 |
| REH (B-cell leukaemia, suspension) | 0.93 | > 1000 | 0.882 | 4950 | 0.76 | 1740 | 0.987 | > 10000 | 0.762 | 6860 | 0.756 | 6590 | 0.963 | > 128 |
| RF-48 (stomach, adherent) | 0.95 | > 1000 | 0.787 | 2460 | 0.583 | 558 | 0.945 | > 10000 | 0.602 | 2470 | 0.701 | 4980 | 0.979 | > 128 |
| RH-1 (rhabdomyosarcoma, adherent) | 0.984 | > 1000 | 0.967 | > 5000 | 0.949 | > 5120 | 0.98 | > 10000 | 0.654 | 3080 | 0.951 | > 20000 | 0.984 | > 128 |
| RKO (large intestine, adherent) | 0.457 | 48 | 0.861 | 3730 | 0.805 | 2360 | 0.972 | > 10000 | 0.887 | 19500 | 0.607 | 2400 | 0.988 | > 128 |
| RL (B-cell lymphoma, suspension) | 0.966 | > 1000 | 0.939 | > 5000 | 0.987 | > 5120 | 0.974 | > 10000 | 0.599 | 2280 | 0.591 | 2170 | 0.987 | > 128 |
| ROS-50 (B-cell leukaemia, suspension) | 0.982 | > 1000 | 0.766 | 2350 | 0.843 | > 5120 | 0.887 | > 10000 | 0.899 | > 20000 | 0.614 | 2810 | 0.981 | > 128 |
| RPMI-6666 (Hodgkin lymphoma, suspension) | 0.91 | > 1000 | 0.529 | 381 | 0.534 | 404 | 0.924 | > 10000 | 0.752 | 7830 | 0.583 | 2210 | 0.919 | > 128 |
| RPMI-8866 (chronic myeloid leukaemia, suspension) | 0.83 | 568 | 0.775 | 1830 | 0.951 | > 5120 | 0.965 | > 10000 | 0.835 | 11900 | 0.49 | 1170 | 0.986 | > 128 |
